Data: article PMC12656546, “Enterohepatic Recirculation-Mediated Reabsorption of Aristolochic Acid I: Revealed by Toxicokinetics and Metabolite Identification in Rats” (Toxics, 2025)
“And” between values parts separate entries of the source, which are not always exact repeats. Equal entries are not always repeated. The source gives many values for each of these; only a part stands here.

Experiment: Toxicokinetic study of AAI after single oral administration (plasma, UPLC-QQQ-MS/MS, NCA)
Assay type: in vivo, F344 rats
Procedure: For toxicokinetic study, forty-eight […] F344 rats (specific pathogen-free grade) were enrolled in the study, with equal numbers of males and females. All rats were purchased from Charles River Laboratory (Raleigh, NC, USA). All rats were confirmed to be healthy based on a series of physical health examinations. Rats were acclimated for 5 days at a temperature of 20–26 °C, humidity of 40–70% and a 12 h light/dark circle. The rats were randomly divided into four groups (n = 12 per group), with equal numbers of males and females in each group. The allocation was performed separately for each sex (female and male) based on body weight using a stratified randomization method. During the experiment, rats were fasted and had access to water ad libitum. To minimize confounding factors, treatments and measurements were randomized within each session. Cages from different groups were evenly distributed across racks in the same room to reduce bias from light and temperature. This study was approved by the Institutional Animal Care and Use Committee (IACUC) of the National Drug Safety Evaluation Center (Approval No. IACUC-2024-K011, 20 September 2024).
During the experiment, each rat received a single oral administration via gastric gavage. Rats in the control group were administered with 0.5% sodium carboxymethyl cellulose (CMC-Na) suspension. For the treatment groups, rats were administered with gavage solution containing 10, 30 and 100 mg/kg of AAI. The gavage solution was prepared by uniformly dispersing the reference standard of AAI in the 0.5% CMC-Na solution. After oral administration, blood samples were collected from the postorbital vein plex of rats and immediately placed in EDTA tubes. To capture potential reabsorption which might occur long after AAI administration, 15 blood sampling time points were established for each dose group. A sparse sampling approach was employed to avoid excessive blood loss in each rat. For each dosage, 12 rats were subdivided into two groups. For the first group, blood samples were collected from 6 rats at 10, 30, 60, 90, 120, 240, 420, and 600 min after AAI administration; for the second group, blood samples were collected from these 6 rats at 12, 14, 16, 18, 20, 22, and 24 h after AAI administration. Therefore, the experimental design ensured that six biological replicates were obtained for each sampling time point, enabling robust toxicokinetic analysis.
Rat plasma samples were prepared as follows: Blood was centrifuged at 13,200 rpm for 10 min. Then, 25 μL of retrieved plasma was transferred to 2 mL centrifuge tubes, followed by the addition of 75 μL of methanol/acetonitrile solution (v/v, 1∶1) containing indomethacin as internal standard (IS). After vortexing for 2 min and centrifugation for 10 min at 13,200 rpm, the supernatant was used as study samples for quantitative analysis. Quality control samples (QCs) and calibration standards were prepared by spiking blank plasma with different concentrations of AAI standard solution. The QCs and calibration standards were processed using identical procedures as the study samples.
A method of ultra-performance liquid chromatography coupled with triple quadrupole tandem mass spectrometry (UPLC-QQQ-MS/MS) was developed to achieve the quantitation of AAI in rat plasma. The LC-MS/MS analysis was performed using an Acquity UPLC I-Class system coupled with an Xevo TQ XS spectrometer (Waters, Milford, MA, USA). An Acquity UPLC BEH C18 column (2.1 mm × 50 mm, 1.7 μm, Waters, Milford, MA, USA) was employed for chromatographic separation. The mobile phases consisted of water containing 5 mmol/L ammonium formate/0.1% formic acid (A) and acetonitrile (B). The gradient elution was set as follows: 1–4 min, 10–90% B; 4–5 min, 90% B; 5–5.01 min, 90–10% B; 5.01–7 min, 10% B. The flow rate was set at 0.4 mL/min. The column temperature was maintained at 40 °C. A sample volume of 2 μL was injected for analysis. […]

Compound: COc1cccc2c1cc([N+](=O)[O-])c1c(C(=O)O)cc3c(c12)OCO3 [AAI, Aristolochic acid I]
- AAI plasma concentration (high-dose (100 mg/kg oral), 0.167 h, individual rats M301,M302,M303,F301,F302,F303, 100 mg/kg): 1009.67 ng/mL and 1062.01 ng/mL and 1721.81 ng/mL and 1913.03 ng/mL and 1643.16 ng/mL and 607.21 ng/mL
- AAI plasma concentration (high-dose (100 mg/kg oral), 0.5 h, individual rats M301,M302,M303,F301,F302,F303, 100 mg/kg): 2999.47 ng/mL and 3184.21 ng/mL and 4967.56 ng/mL and 1741.22 ng/mL and 7104.04 ng/mL and 8362.47 ng/mL
- AAI plasma concentration (high-dose (100 mg/kg oral), 1 h, individual rats M301,M302,M303,F301,F302,F303, 100 mg/kg): 6490.96 ng/mL and 6245.89 ng/mL and 10563.14 ng/mL and 3115.53 ng/mL and 9980.23 ng/mL and 12351.60 ng/mL
- AAI plasma concentration (high-dose (100 mg/kg oral), 1.5 h, individual rats M301,M302,M303,F301,F302,F303, 100 mg/kg): 1664.97 ng/mL and 2038.97 ng/mL and 4522.83 ng/mL and 3778.52 ng/mL and 3945.25 ng/mL and 12165.24 ng/mL
- AAI plasma concentration (high-dose (100 mg/kg oral), 2 h, individual rats M301,M302,M303,F301,F302,F303, 100 mg/kg): 1799.39 ng/mL and 2407.42 ng/mL and 4896.69 ng/mL and 9005.21 ng/mL and 2601.40 ng/mL and 10921.55 ng/mL
- AAI plasma concentration (high-dose (100 mg/kg oral), 4 h, individual rats M301,M302,M303,F301,F302,F303, 100 mg/kg): 136.32 ng/mL and 213.45 ng/mL and 139.82 ng/mL and 336.71 ng/mL and 1280.18 ng/mL and 446.76 ng/mL
- AAI plasma concentration (high-dose (100 mg/kg oral), 7 h, individual rats M301,M302,M303,F301,F302,F303, 100 mg/kg): 173.06 ng/mL and 63.95 ng/mL and 15.64 ng/mL and 63.08 ng/mL and 33.78 ng/mL and 275.77 ng/mL
- AAI plasma concentration (high-dose (100 mg/kg oral), 10 h, individual rats M301,M302,M303,F301,F302,F303, 100 mg/kg): 122.68 ng/mL and 64.66 ng/mL and 30.04 ng/mL and 8.77 ng/mL and 38.31 ng/mL and 129.34 ng/mL
- AAI plasma concentration (high-dose (100 mg/kg oral), 12 h, individual rats M304,M305,M306,F304,F305,F306, 100 mg/kg): 16.05 ng/mL and 14.02 ng/mL and 42.26 ng/mL and 19.30 ng/mL and 13.11 ng/mL and 4.59 ng/mL
- AAI plasma concentration (high-dose (100 mg/kg oral), 14 h, individual rats M304,M305,M306,F304,F305,F306, 100 mg/kg): 2.18 ng/mL and 6.90 ng/mL and 11.25 ng/mL and 12.80 ng/mL and 5.22 ng/mL and 1.93 ng/mL
- AAI plasma concentration (high-dose (100 mg/kg oral), 16 h, individual rats M304,M305,M306,F304,F305,F306, 100 mg/kg): 5.46 ng/mL and 4.41 ng/mL and 1.05 ng/mL and 3.74 ng/mL and 3.08 ng/mL and 7.06 ng/mL
- AAI plasma concentration (high-dose (100 mg/kg oral), 18 h, individual rats M304,M305,M306,F304,F305,F306, 100 mg/kg): 7.04 ng/mL and 3.67 ng/mL and 3.01 ng/mL and 4.52 ng/mL and 4.90 ng/mL and 2.70 ng/mL
- AAI plasma concentration (high-dose (100 mg/kg oral), 20 h, individual rats M304,M305,M306,F304,F305,F306, 100 mg/kg): 25.70 ng/mL and 2.27 ng/mL and 3.98 ng/mL and 11.14 ng/mL and 9.92 ng/mL and 3.92 ng/mL
- AAI plasma concentration (high-dose (100 mg/kg oral), 22 h, individual rats M304,M305,M306,F304,F305,F306, 100 mg/kg): 47.98 ng/mL and 1.65 ng/mL and 5.50 ng/mL and 142.21 ng/mL and 79.80 ng/mL and 80.57 ng/mL
- AAI plasma concentration (high-dose (100 mg/kg oral), 24 h, individual rats M304,M305,M306,F304,F305,F306, 100 mg/kg): 58.08 ng/mL and 2.38 ng/mL and 52.27 ng/mL and 136.79 ng/mL and 46.66 ng/mL and 121.57 ng/mL
- AAI plasma concentration (low-dose (10 mg/kg oral), 0.167 h, individual rats M101,M102,M103,F101,F102,F103, 10 mg/kg): 302.65 ng/mL and 205.66 ng/mL and 224.48 ng/mL and 361.73 ng/mL and 237.84 ng/mL and 131.58 ng/mL
- AAI plasma concentration (low-dose (10 mg/kg oral), 0.5 h, individual rats M101,M102,M103,F101,F102,F103, 10 mg/kg): 640.11 ng/mL and 496.76 ng/mL and 561.81 ng/mL and 348.84 ng/mL and 161.56 ng/mL and 436.18 ng/mL
- AAI plasma concentration (low-dose (10 mg/kg oral), 1 h, individual rats M101,M102,M103,F101,F102,F103, 10 mg/kg): 320.59 ng/mL and 171.91 ng/mL and 184.15 ng/mL and 218.72 ng/mL and 153.69 ng/mL and 342.08 ng/mL
- AAI plasma concentration (low-dose (10 mg/kg oral), 1.5 h, individual rats M101,M102,M103,F101,F102,F103, 10 mg/kg): 295.58 ng/mL and 175.49 ng/mL and 161.16 ng/mL and 122.35 ng/mL and 58.12 ng/mL and 123.57 ng/mL
- AAI plasma concentration (low-dose (10 mg/kg oral), 2 h, individual rats M101,M102,M103,F101,F102,F103, 10 mg/kg): 135.36 ng/mL and 134.41 ng/mL and 131.07 ng/mL and 93.20 ng/mL and 247.55 ng/mL and 212.86 ng/mL
- AAI plasma concentration (low-dose (10 mg/kg oral), 4 h, individual rats M101,M102,M103,F101,F102,F103, 10 mg/kg): 45.53 ng/mL and 79.65 ng/mL and 58.36 ng/mL and 82.38 ng/mL and 47.04 ng/mL and 118.25 ng/mL
- AAI plasma concentration (low-dose (10 mg/kg oral), 7 h, individual rats M101,M102,M103,F101,F102,F103, 10 mg/kg): 24.53 ng/mL and 14.80 ng/mL and 16.15 ng/mL and 40.40 ng/mL and 23.83 ng/mL and 38.02 ng/mL
- AAI plasma concentration (low-dose (10 mg/kg oral), 10 h, individual rats M101,M102,M103,F101,F102,F103, 10 mg/kg): 18.34 ng/mL and 7.28 ng/mL and 14.52 ng/mL and 56.42 ng/mL and 36.96 ng/mL and 37.99 ng/mL
- AAI plasma concentration (low-dose (10 mg/kg oral), 12 h, individual rats M104,M105,M106,F104,F105,F106, below LLOQ set to zero, 10 mg/kg): 1.11 ng/mL and 5.17 ng/mL and 0.00 ng/mL (3×) and 1.35 ng/mL
- AAI plasma concentration (low-dose (10 mg/kg oral), 14 h, individual rats M104,M105,M106,F104,F105,F106, below LLOQ set to zero): 0.00 ng/mL
- AAI plasma concentration (low-dose (10 mg/kg oral), 16 h, individual rats M104,M105,M106,F104,F105,F106, below LLOQ set to zero): 0.00 ng/mL
- AAI plasma concentration (medium-dose (30 mg/kg oral), 24 h, individual rats M204,M205,M206,F204,F205,F206, 30 mg/kg): 0.34 ng/mL and 6.62 ng/mL and 84.22 ng/mL and 6.41 ng/mL
